{"source": "paper PMC4336329", "about": "(PLoS ONE, 2015)", "note": "The whole screen tested about 310,000 compounds, of which about 14,000 (4.5%) showed an effect of 50% or more. Effects have a minus sign here. The list shows a part of the results.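 Note: peak tail current of the secondary pulse compared with the same well before compound.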", "data": [{"biological_target": "human ether-à-go-go-related gene (hERG) potassium channel (human, UniProt Q12809)", "sequence (Q12809 whole entry, looked up)": "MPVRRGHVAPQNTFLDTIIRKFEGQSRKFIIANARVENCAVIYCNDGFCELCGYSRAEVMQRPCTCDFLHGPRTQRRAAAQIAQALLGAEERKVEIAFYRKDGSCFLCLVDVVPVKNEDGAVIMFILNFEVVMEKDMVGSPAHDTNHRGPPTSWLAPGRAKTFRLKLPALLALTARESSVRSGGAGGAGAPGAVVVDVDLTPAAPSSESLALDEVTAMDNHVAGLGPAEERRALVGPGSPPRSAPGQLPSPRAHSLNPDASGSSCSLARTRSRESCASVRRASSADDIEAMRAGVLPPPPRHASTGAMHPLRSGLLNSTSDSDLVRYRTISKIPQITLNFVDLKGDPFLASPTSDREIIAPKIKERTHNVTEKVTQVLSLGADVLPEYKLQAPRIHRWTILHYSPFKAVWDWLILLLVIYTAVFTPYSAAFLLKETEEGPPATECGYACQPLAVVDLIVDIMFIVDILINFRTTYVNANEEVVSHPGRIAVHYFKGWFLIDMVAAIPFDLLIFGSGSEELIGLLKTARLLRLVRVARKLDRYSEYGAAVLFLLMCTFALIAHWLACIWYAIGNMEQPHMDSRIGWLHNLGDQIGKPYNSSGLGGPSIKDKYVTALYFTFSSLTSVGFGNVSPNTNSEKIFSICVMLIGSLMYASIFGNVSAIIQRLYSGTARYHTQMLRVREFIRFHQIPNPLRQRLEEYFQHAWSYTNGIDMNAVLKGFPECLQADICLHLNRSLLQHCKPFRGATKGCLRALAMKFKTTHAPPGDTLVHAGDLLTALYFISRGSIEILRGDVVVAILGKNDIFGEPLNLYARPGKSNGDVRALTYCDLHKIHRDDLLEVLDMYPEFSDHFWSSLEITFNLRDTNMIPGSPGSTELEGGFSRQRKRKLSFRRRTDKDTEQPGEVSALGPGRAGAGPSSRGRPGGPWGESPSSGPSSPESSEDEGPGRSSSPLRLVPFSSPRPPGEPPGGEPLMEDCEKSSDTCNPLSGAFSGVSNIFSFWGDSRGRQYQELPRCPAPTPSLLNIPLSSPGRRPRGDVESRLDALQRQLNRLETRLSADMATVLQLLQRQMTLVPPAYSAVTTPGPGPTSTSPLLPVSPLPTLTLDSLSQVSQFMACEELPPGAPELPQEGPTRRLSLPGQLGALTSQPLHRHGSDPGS", "assay": "primary screen, population patch clamp on CHO cells stably expressing hERG", "units": {"hERG current change (%, negative = inhibition) at 10uM": "%"}, "values": [{"compound": "Cc1ccc(-n2c(C)cc3c2CC(C)(C)CC3=O)cc1C", "hERG current change (%, negative = inhibition) at 10uM": 10.5}, {"compound": "CCSc1nnc(NC(=O)[C@@H](NC(=O)c2ccccc2F)C(C)C)s1", "hERG current change (%, negative = inhibition) at 10uM": -8.27}, {"compound": "COc1cc(S(=O)(=O)N2CCCN(C)CC2)ccc1NC(C)=O", "hERG current change (%, negative = inhibition) at 10uM": 15.8}, {"compound": "COc1ccc(/C=C2\\SC(=S)N(CCCC(=O)Nc3ccc(C(=O)O)cc3)C2=O)cc1OC", "hERG current change (%, negative = inhibition) at 10uM": 1.9}, {"compound": "Cc1cc(NC(=O)c2ccccc2-c2ccccc2)ccc1Br", "hERG current change (%, negative = inhibition) at 10uM": -6.32}, {"compound": "Cc1nn(CC(=O)O)c(=O)c2ccccc12", "hERG current change (%, negative = inhibition) at 10uM": -2.7}, {"compound": "O=C1CCCN2N=C(SCC(=O)Nc3ccc(F)cc3F)SC2=N1", "hERG current change (%, negative = inhibition) at 10uM": -0.806}, {"compound": "CC(=O)n1nc(-c2ccco2)nc1N", "hERG current change (%, negative = inhibition) at 10uM": 16.4}, {"compound": "Cc1cc(C)n2nc(SCc3ccccc3)nc2n1", "hERG current change (%, negative = inhibition) at 10uM": -25.6}, {"compound": "CC(=O)c1ccc(NC(=O)/C(=C\\c2ccccc2)NC(=O)/C=C/c2ccccc2)cc1", "hERG current change (%, negative = inhibition) at 10uM": -2.95}, {"compound": "CC(=O)C1=C(O)CC(c2ccccc2)CC1=NCCc1ccccc1", "note": "(stereo not drawn)", "hERG current change (%, negative = inhibition) at 10uM": -45.8}, {"compound": "COc1ccc(/C=N/NC(=O)c2ccc(COc3cccc4cccnc34)cc2)cc1OC", "hERG current change (%, negative = inhibition) at 10uM": -14.7}, {"compound": "O=C(Oc1oc(-c2ccco2)nc1C=Nc1ccc(Cl)cc1)c1ccco1", "hERG current change (%, negative = inhibition) at 10uM": 7.62}, {"compound": "COc1cc(OC)cc(C(=O)N(Cc2cc3cc(C)ccc3[nH]c2=O)C(C)C)c1", "hERG current change (%, negative = inhibition) at 10uM": -7.49}, {"compound": "C/C(=N\\OCC(=O)Nc1ccccc1C(=O)O)c1cccs1", "hERG current change (%, negative = inhibition) at 10uM": 22.1}, {"compound": "Fc1ccccc1Cc1nnc2n1N=C(c1ccc(Cl)cc1)CS2", "hERG current change (%, negative = inhibition) at 10uM": -10.1}, {"compound": "O=C1COc2ccc(C(=O)COC(=O)c3ccccc3[N+](=O)[O-])cc2N1", "hERG current change (%, negative = inhibition) at 10uM": -4.09}, {"compound": "COc1ccc(NC(=S)NC(=O)C2CCC2)cc1", "hERG current change (%, negative = inhibition) at 10uM": 7.29}, {"compound": "O=C(CSc1nnnn1C1CCCCC1)NCc1cccs1", "hERG current change (%, negative = inhibition) at 10uM": 11.7}, {"compound": "COc1cc(C(O)P(=O)(OC(C)C)OC(C)C)cc(OC)c1OC", "note": "(stereo not drawn)", "hERG current change (%, negative = inhibition) at 10uM": -8.04}, {"compound": "COC(=O)C(Cc1ccccc1)NC(=O)CNC(=O)c1ccccc1OC", "note": "(stereo not drawn)", "hERG current change (%, negative = inhibition) at 10uM": 10.3}, {"compound": "O=C(COc1ccc(Cl)cc1)NNC(=O)c1ccccn1", "hERG current change (%, negative = inhibition) at 10uM": 0.692}, {"compound": "COc1ccc(S(=O)(=O)N2CCN(c3ccccc3OC)CC2)cc1C(=O)N1CCCCC1", "hERG current change (%, negative = inhibition) at 10uM": 7.51}, {"compound": "CCCOc1ccc(C(=O)ON=C2CCN(C)CC2)cc1.Cl", "hERG current change (%, negative = inhibition) at 10uM": -9.07}, {"compound": "Oc1ccccc1N1CCN(c2ncnc3sc(-c4ccccc4)cc23)CC1", "hERG current change (%, negative = inhibition) at 10uM": -6.19}, {"compound": "COC(=O)c1cnc2c(C(F)(F)F)cccc2c1OC", "hERG current change (%, negative = inhibition) at 10uM": -14.6}, {"compound": "Cc1ccc(NC(=O)C(C)N2C(=O)c3ccccc3C2=O)cc1C", "note": "(stereo not drawn)", "hERG current change (%, negative = inhibition) at 10uM": 4.98}, {"compound": "Cc1cccc(C(=O)N2CCCC(N3CCN(c4ccccc4)CC3)C2)n1", "note": "(stereo not drawn)", "hERG current change (%, negative = inhibition) at 10uM": -2.91}, {"compound": "CCC(=O)Nc1cccc(NC(=S)NC(=O)c2ccccc2)c1", "hERG current change (%, negative = inhibition) at 10uM": -2.18}, {"compound": "O=C(NCC1CCCO1)c1onc(CSc2cccc(Cl)c2)c1C(=O)O", "note": "(stereo not drawn)", "hERG current change (%, negative = inhibition) at 10uM": 5.54}, {"compound": "O=C(CSc1nc2ccccc2n1CC(=O)N1CCCC1)N1CCN(C(=O)c2ccco2)CC1", "hERG current change (%, negative = inhibition) at 10uM": -0.921}, {"compound": "Cc1ccc(C)c(NC(=O)c2ccccc2NC(=O)C2CCCO2)c1", "note": "(stereo not drawn)", "hERG current change (%, negative = inhibition) at 10uM": -0.135}, {"compound": "N#CC1=C(N)N2C(=C(C#N)C13CCCCC3)SC1CCCCC12O", "note": "(stereo not drawn)", "hERG current change (%, negative = inhibition) at 10uM": 2.49}, {"compound": "O=C(Nc1ccc(NC(=O)C2CCCCC2)nc1)c1cccs1", "hERG current change (%, negative = inhibition) at 10uM": 9.16}, {"compound": "CCCCCN(C(=O)CCC(=O)OCC(=O)c1ccc(F)c(F)c1)c1c(N)n(CCCC)c(=O)[nH]c1=O", "hERG current change (%, negative = inhibition) at 10uM": -33.7}, {"compound": "O=c1cc([O-])[n+]2c3n1CCCN3CCC2", "hERG current change (%, negative = inhibition) at 10uM": -13.3}, {"compound": "O=C(/C=C/c1ccc(OCc2ccccc2)c(OCc2ccccc2)c1)c1cccnc1", "hERG current change (%, negative = inhibition) at 10uM": -14.8}, {"compound": "CC(C)(C)c1cc(C(=O)Nc2ccc(F)cc2)n(Cc2ccc(F)cc2)n1", "hERG current change (%, negative = inhibition) at 10uM": 8.22}, {"compound": "O=C1COc2ccc(C(=O)COC(=O)CNS(=O)(=O)c3cccc(F)c3)cc2N1", "hERG current change (%, negative = inhibition) at 10uM": -10.4}, {"compound": "CC1C(=O)C(C)C(c2ccco2)NC1c1ccco1.Cl", "note": "(stereo not drawn)", "hERG current change (%, negative = inhibition) at 10uM": 13.9}, {"compound": "Nc1ccc(Cl)c(NC(=O)c2cccs2)c1", "hERG current change (%, negative = inhibition) at 10uM": 5.51}, {"compound": "COC(=O)C1=C(c2cccc(OCc3ccccc3)c2)C[C@@H]2CC[C@H]1N2C(=O)NCc1ccc(Br)cc1", "hERG current change (%, negative = inhibition) at 10uM": 19.3}, {"compound": "COC(=O)C1=C(C(=O)OC)C(c2ccc(OC)c(OC)c2)c2sc(=O)[nH]c2S1", "note": "(stereo not drawn)", "hERG current change (%, negative = inhibition) at 10uM": -54.8}, {"compound": "Cc1cc(CNC(=O)C2(C(F)(F)F)CC(CCCO)CCCO2)nn1C", "note": "(stereo not drawn)", "hERG current change (%, negative = inhibition) at 10uM": 7.56}, {"compound": "Cn1c(SCC(=O)Nc2ccc(Cl)cc2)nnc1C1CC1", "hERG current change (%, negative = inhibition) at 10uM": -4.96}]}]}
